Results: PubChem BioAssay AID662 (National Center for Advancing Translational Sciences (NCATS), 2007)
In all, about 71,000 compounds went through this assay and about 1,800 (2.5%) were called active. Inconclusive means that the source gave no clear call. Such entries were picked first, then a sample of the others. Calls follow the shape of the dose curve; as a rule, active = well fitted activation curve with a large enough effect in the signal ratio, with a control signal flat (not every such curve was filed as active); inconclusive = small, poorly fitted or top-dose-only effect, or effect the other way, or a change in a side signal; inactive = flat fitted curve, though single readings scatter; the % refers to the signal ratio. Potencies of inconclusive entries are doubtful fits and often do not repeat.

Experiment: Cell signaling CRE-BLA (Fsk stim); as to activity change, negative = inhibition: % of control where 0% means no effect
Conditions: CHO CRE-bla reporter (cAMP response element driving beta-lactamase), forskolin EC10, beta-lactamase ratio; activity change, negative = inhibition: at 38.2 µM (top of the series) unless noted
In short: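 Modulation of forskolin signalling: compounds in titration series added with EC10 NKH 477 to CHO cells carrying a CRE-driven beta-lactamase reporter, 3 h, 37C. CCF4 FRET ratio (460/530 nm, ex 405 nm) gives %activity and AC50.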
Potency is read from the fitted curve at half-maximal effect; tags tell the direction and shape of the fitted curve.

| Structure (SMILES) | activity change, negative = inhibition | Potency |
| --- | --- | --- |
| N#CCSc1nc2ccccc2c(=O)n1CCC(=O)NC1CCCCC1 | inconclusive: 5.23% |  |
| COc1ccc(NC(=O)c2ccccc2NC(=O)c2ccco2)c(OC)c1 |  | inconclusive: 5.01 µM [rising, single point] |
| CCOC(=O)CNc1c(-c2ccc(Cl)cc2)nc2cnccn12 | inconclusive: 3.2% |  |
| CC1CC=C2C(C#N)=C(N)C(C#N)(C#N)C(c3cccs3)C2C1 (centres undefined) |  | inactive |
| CC(C)CCn1nc(C(=O)OC(C)C(=O)NC(N)=O)c2ccccc2c1=O (centres undefined) | inconclusive: 12% |  |
| CNS(=O)(=O)c1cccc(C(=O)OCC(=O)Nc2ccccc2OC(F)F)c1 | inconclusive: 19% |  |
| C=CCNc1ncnc2c1cnn2-c1cccc(C)c1 |  | inconclusive: 10 µM [rising, single point] |
| COc1ccc(CCNC(=O)C2CCN(S(=O)(=O)N3CCCCCC3)CC2)cc1OC | inconclusive: -4.33% |  |
| Cc1ccc2c(n1)sc1c(N)ncnc12 |  | inconclusive: 10 µM [rising, partial curve] |
| O=C(C1=C(O)C(=O)N(c2ncccn2)C1c1cccs1)c1ccco1 (centres undefined) | inconclusive: -28% [at 7.6 µM] |  |
| COc1ccc(CNc2cc(-c3cccc(NS(C)(=O)=O)c3)ncn2)c(OC)c1 |  | inconclusive: 12.6 µM [rising, partial curve] |
| CCOc1ccc(NC(=O)CN2CCN(CC(=O)Nc3ccc(F)c(F)c3)CC2)cc1 |  | inactive |
| Cc1c(CCC(=O)O)c(=O)oc2cc3occ(-c4ccc(F)cc4)c3cc12 |  | active: 10 µM |
| Cc1cccc(C)c1NC(=O)Cn1cnc2c(=O)n(C)c(=O)n(C)c21 |  | inactive |
| N#Cc1cn(CC(=O)NCC2CCCO2)c2ccccc12 (centres undefined) | inconclusive: 15.3% [at 7.6 µM] |  |
| COc1cc(CCC(=O)N2CCN(S(=O)(=O)c3ccc(C)c(C)c3)CC2)cc(OC)c1OC |  | inactive |
| COc1cccc(C2C(C(=O)c3cc4ccccc4o3)=C(O)C(=O)N2c2cc(C)on2)c1OC (centres undefined) | inconclusive: -6.23% |  |
| CC(C)=CCC(C)(C)C1OCCN1C(=O)Nc1ccccc1 (centres undefined) |  | inactive |
| CSc1nc2nc(-c3ccccc3)cc(C(F)(F)F)n2n1 |  | inconclusive: 20 µM [rising, single point] |
| CCc1ccc(CCC(=O)O)nc1 |  | inconclusive: 1 µM [rising, single point] |
| COC(=O)C1C(=O)C2=C(CC1C)NC(C)=C(C(=O)OC(C)C)C2c1ccc(OC)c(O)c1 (centres undefined) | inconclusive: 17.8% |  |
| CCOc1ccc(-c2[nH]ncc2-c2ccc(OC)c(OC)c2)c(O)c1 | inconclusive: 18.3% |  |
| CC1(C)Cc2ccccc2-c2nc3ccccc3c(=O)n21 | inconclusive: 18.4% |  |
| CCOc1ccc(-c2ncncc2-c2ccc(OC)cc2)c(O)c1 |  | inactive |
| COc1ccccc1N1CCN(CC(=O)c2c(C)[nH]c3ccccc23)CC1 | inconclusive: -18.5% |  |
| C1CCC(OCCN2CCN(CCOC3CCCCC3)CC2)CC1 |  | inactive |
| CCOC(=O)Nc1ccc2c(c1)N(C(=O)CCN1CCN3CCCC3C1)c1ccccc1CC2 (centres undefined) | inconclusive: 5.18% |  |

| Structure (SMILES) | activity change, negative = inhibition | Potency |
| --- | --- | --- |
| Cc1cc(C)c2cc(C#N)c(N3CCCC3)nc2c1 |  | active: 12.6 µM |
| CC(=O)OCCNC(=O)Cn1cnc2c1c(=O)n(C)c(=O)n2C |  | inactive |
| O=C1c2nc3ccccn3c2C(=O)N1Cc1ccccc1 |  | inconclusive: 5.01 µM [rising, single point] |
| COc1ccc(N2CC(C)Cn3c2nc2c3c(=O)n(Cc3ccc(F)cc3)c(=O)n2C)c(OC)c1 (centres undefined) | inconclusive: -4.91% |  |
| CCCCN1CCC(n2c(=O)[nH]c3ccccc32)CC1 |  | inactive |
| Cc1cc(C)nc(NS(=O)(=O)c2ccc(NC(=O)CCN3C(=O)c4ccccc4C3=O)cc2)n1 | inconclusive: -18.8% [at 7.6 µM] |  |
| CC1CCCCC1NC(=O)CN1CCN(Cc2ccccc2Cl)C1=O (centres undefined) |  | inconclusive: 3.16 µM [falling, full curve] |
| COc1ccc(C2C3=C(CC(C)(C)CC3=O)Nc3c2c(=O)[nH]c(=O)n3Cc2ccccc2)cc1 (centres undefined) |  | inconclusive: 3.98 µM [rising, single point] |
| O=C(NCCCN1CCN(c2ccccc2)CC1)Nc1ccccc1C(F)(F)F |  | inactive |
| Cc1ccccc1NC(=O)c1ccccc1NC(=O)c1ccco1 |  | inconclusive: 10 µM [rising, partial curve, poor fit] |
| COCc1cc(C)nc2sc3c(=O)oc(C)nc3c12 |  | inactive |
| CC1Cc2ccccc2N1C(=O)CSc1nc2ccccc2n1CC(=O)N1CCOCC1 (centres undefined) | inconclusive: 19.5% |  |
| COc1ccc(-n2nnnc2SCC(=O)Nc2ccc3c(c2)OCCO3)c(OC)c1 |  | inactive |
| CCOC(=O)c1cn(CC)c2cc(N3CCSCC3)c(F)cc2c1=O |  | inconclusive: 10 µM [rising, single point] |
| O=C(c1ccco1)N1CCN(CC(O)COc2ccc3oc4ccccc4c3c2)CC1 (centres undefined) |  | inconclusive: 0.1 µM [falling, single point] |
| OC(CN1CCN(c2ccccc2)CC1)c1c[nH]c2ccccc12 (centres undefined) |  | inconclusive: 12.6 µM [falling, partial curve] |
| COc1ccc2[nH]cc(CCNc3nc(-c4c(C)noc4C)nc4ccccc34)c2c1 | inconclusive: -0.882% |  |
| NC(=O)c1ccccc1O |  | inactive |
| Cc1ccc(O)c(-c2cc(C(=O)NCc3ccncc3)[nH]n2)c1 |  | inconclusive: 1 µM [rising, partial curve] |
| Nc1cccc(N)c1 |  | inactive |
| N#Cc1c(NC(=O)C(F)(F)F)sc2c3c(=O)c4ccccc4c(=O)c=3oc3ccccc3c12 | inconclusive: -9.73% [at 7.6 µM] |  |
| COc1ccccc1N(C)S(=O)(=O)c1ccc(C(=O)NC2=NCCS2)cc1 | inconclusive: 14.6% |  |
| Cc1ccc2cc3c(NC(=O)c4cccnc4)nn(C)c3nc2c1 |  | inactive |
| CC1CC(=O)c2cnc(NCc3ccco3)nc2C1 (centres undefined) |  | inactive |
| CCCN(CCC)CCNC(=O)c1cc2c(=O)n(C)c3ccccc3c2n1C |  | inactive |
| NC(=O)c1c(NC(=O)c2cccs2)sc2c1CCCCCC2 | inconclusive: 29.7% |  |
| Cc1nc(N=Nc2cc(S(=O)(=O)O)ccc2S(=O)(=O)O)c(COP(=O)(O)O)c(C=O)c1O |  | inconclusive: 12.6 µM [rising, single point] |
